# Data: the supplement of paper PMC4604168 (melanoma cell lines)
# Some of the results follow. Single values are uncertain, as repeats are few or missing.
# System: LB2518-MEL
# Test: cell count relative to DMSO control; melanoma cells; higher = more viable cells
# Details: library dose: low library concentration; 72 h
# 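Further: cell number obtained by counting DAPI-stained nuclei in high-throughput microscope images with image analysis software, screen run in 1,536-well plates.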
row,SMILES,cell count [%]
1,"NC(=O)c1ccc(N(C(N)=O)c2c(F)cccc2F)nc1-c1ccc(F)cc1F + Cn1cncc1[C@@](N)(c1ccc(Cl)cc1)c1ccc2c(c1)c(-c1cccc(Cl)c1)cc(=O)n2C [tipifarnib] (first compound 0.4 µM, partner dose 0.01 µM)",73.7
2,"NC(=O)c1ccc(N(C(N)=O)c2c(F)cccc2F)nc1-c1ccc(F)cc1F + CO[C@@H]1[C@H](N(C)C(=O)c2ccccc2)C[C@H]2O[C@]1(C)n1c3ccccc3c3c4c(c5c6ccccc6n2c5c31)C(=O)NC4 [Midostaurin] (first compound 0.4 µM, partner dose 0.08 µM)",105
3,"NC(=O)c1ccc(N(C(N)=O)c2c(F)cccc2F)nc1-c1ccc(F)cc1F + CN(NC(=O)CC(=O)NN(C)C(=S)c1ccccc1)C(=S)c1ccccc1 [STA4783] (first compound 0.4 µM, partner dose 0.006 µM)",66.7
4,"Cc1ccc(NC(=O)c2cccc(N(C)C)c2)cc1NC(=O)c1ccc(O)cc1 + O=C(O)c1ccc(-c2c[nH]c3ncc(-c4ccccc4)cc23)cc1C1CCCC1 [GSK650394] (first compound 2 µM, partner dose 0.16 µM)",87.8
5,"NC(=O)c1ccc(N(C(N)=O)c2c(F)cccc2F)nc1-c1ccc(F)cc1F + Cc1cc(N2CCOCC2)cc2[nH]c(-c3c(NC[C@@H](O)c4cccc(Cl)c4)cc[nH]c3=O)nc12 [BMS536924] (first compound 0.4 µM, partner dose 0.2 µM)",105
6,"NC(=O)c1ccc(N(C(N)=O)c2c(F)cccc2F)nc1-c1ccc(F)cc1F + COc1cc(Nc2ncc(F)c(Nc3ccc4c(n3)NC(=O)C(C)(C)O4)n2)cc(OC)c1OC [Tamatinib] (first compound 0.4 µM, partner dose 0.4 µM)",82.6
7,"CCCCCCCCc1ccc(CCC(N)(CO)CO)cc1 [fingolimod] + CN(C)S(=O)(=O)c1ccc2c(c1)/C(=C/c1cc3c([nH]1)CCCC3)C(=O)N2 [SU6656] (first compound 2 µM, partner dose 0.4 µM)",85.3
8,"CCCCCCCCc1ccc(CCC(N)(CO)CO)cc1 [fingolimod] + OCCn1cc(-c2cnc3nnn(Cc4ccc5ncccc5c4)c3n2)cn1 [PF04217903] (first compound 2 µM, partner dose 1 µM)",90.7
9,"NC(=O)c1ccc(N(C(N)=O)c2c(F)cccc2F)nc1-c1ccc(F)cc1F + NC(=O)Nc1cc(-c2cccc(F)c2)sc1C(=O)N[C@H]1CCCNC1 [AZD7762] (first compound 0.4 µM, partner dose 0.02 µM)",108
10,"NC(=O)c1ccc(N(C(N)=O)c2c(F)cccc2F)nc1-c1ccc(F)cc1F + O=C(O)c1ccc(-c2c[nH]c3ncc(-c4ccccc4)cc23)cc1C1CCCC1 [GSK650394] (first compound 0.4 µM, partner dose 0.16 µM)",91.1
11,"CCCCCCCCc1ccc(CCC(N)(CO)CO)cc1 [fingolimod] + COc1cc(Nc2ncc(F)c(Nc3ccc4c(n3)NC(=O)C(C)(C)O4)n2)cc(OC)c1OC [Tamatinib] (first compound 2 µM, partner dose 0.4 µM)",88.8
12,"CC(C)(C)c1cnc(CSc2cnc(NC(=O)C3CCNCC3)s2)o1 + O=C(Nc1cccc(Cl)c1)Nc1ncc(CCNc2ncnc3ccsc23)s1 [SNS314] (first compound 0.01 µM, partner dose 0.0008 µM)",92
13,"Cc1ccc(NC(=O)c2cccc(N(C)C)c2)cc1NC(=O)c1ccc(O)cc1 + COc1cc2c(Oc3ccc4[nH]c(C)cc4c3F)ncnc2cc1OCCCN1CCCC1 [cediranib] (first compound 2 µM, partner dose 0.4 µM)",94.7
14,"NC(=O)c1ccc(N(C(N)=O)c2c(F)cccc2F)nc1-c1ccc(F)cc1F + C[C@@H]1CCN(C(=O)CC#N)C[C@@H]1N(C)c1ncnc2[nH]ccc12 [CP690550] (first compound 0.4 µM, partner dose 1 µM)",110
15,"NC(=O)c1ccc(N(C(N)=O)c2c(F)cccc2F)nc1-c1ccc(F)cc1F + CC(C)(C)c1cnc(CSc2cnc(NC(=O)C3CCNCC3)s2)o1 [SNS-032] (first compound 0.4 µM, partner dose 0.01 µM)",105
16,"CCCCCCCCc1ccc(CCC(N)(CO)CO)cc1 [fingolimod] + CC1(C)NC(=O)N(c2ccc([N+](=O)[O-])c(C(F)(F)F)c2)C1=O [nilutamide] (first compound 2 µM, partner dose 1 µM)",111
17,"Cc1ccc(NC(=O)c2cccc(N(C)C)c2)cc1NC(=O)c1ccc(O)cc1 + CO[C@@H]1[C@H](N(C)C(=O)c2ccccc2)C[C@H]2O[C@]1(C)n1c3ccccc3c3c4c(c5c6ccccc6n2c5c31)C(=O)NC4 [Midostaurin] (first compound 2 µM, partner dose 0.08 µM)",79.7

row,SMILES,cell count [%]
1,"CCCCCCCCc1ccc(CCC(N)(CO)CO)cc1 [fingolimod] + Cc1cc(N2CCOCC2)cc2[nH]c(-c3c(NC[C@@H](O)c4cccc(Cl)c4)cc[nH]c3=O)nc12 [BMS536924] (first compound 2 µM, partner dose 0.2 µM)",95.2
2,"CCCCCCCCc1ccc(CCC(N)(CO)CO)cc1 [fingolimod] + O=C(O)c1ccc(-c2c[nH]c3ncc(-c4ccccc4)cc23)cc1C1CCCC1 [GSK650394] (first compound 2 µM, partner dose 0.16 µM)",97.4
3,"Cc1ccc(NC(=O)c2cccc(N(C)C)c2)cc1NC(=O)c1ccc(O)cc1 + OCCn1cc(-c2cnc3nnn(Cc4ccc5ncccc5c4)c3n2)cn1 [PF04217903] (first compound 2 µM, partner dose 1 µM)",99.7
4,"NC(=O)c1ccc(N(C(N)=O)c2c(F)cccc2F)nc1-c1ccc(F)cc1F + C=CCn1c(=O)c2cnc(Nc3ccc(N4CCN(C)CC4)cc3)nc2n1-c1cccc(C(C)(C)O)n1 [MK1775] (first compound 0.4 µM, partner dose 0.02 µM)",80.6
5,"CC(C)(C)c1cnc(CSc2cnc(NC(=O)C3CCNCC3)s2)o1 + CN(NC(=O)CC(=O)NN(C)C(=S)c1ccccc1)C(=S)c1ccccc1 [STA4783] (first compound 0.01 µM, partner dose 0.006 µM)",67.4
6,"Cc1ccc(NC(=O)c2cccc(N(C)C)c2)cc1NC(=O)c1ccc(O)cc1 + Cn1cncc1[C@@](N)(c1ccc(Cl)cc1)c1ccc2c(c1)c(-c1cccc(Cl)c1)cc(=O)n2C [tipifarnib] (first compound 2 µM, partner dose 0.01 µM)",71.9
7,"Cc1ccc(NC(=O)c2cccc(N(C)C)c2)cc1NC(=O)c1ccc(O)cc1 + NCC(=O)Nc1ccc(-n2nc(C(F)(F)F)cc2-c2ccc3c(ccc4ccccc43)c2)cc1 [OSU03012] (first compound 2 µM, partner dose 1 µM)",90
8,"CCCCCCCCc1ccc(CCC(N)(CO)CO)cc1 [fingolimod] + CN(NC(=O)CC(=O)NN(C)C(=S)c1ccccc1)C(=S)c1ccccc1 [STA4783] (first compound 2 µM, partner dose 0.006 µM)",90.2
9,"NC(=O)c1ccc(N(C(N)=O)c2c(F)cccc2F)nc1-c1ccc(F)cc1F + COc1cc2c(Oc3ccc4[nH]c(C)cc4c3F)ncnc2cc1OCCCN1CCCC1 [cediranib] (first compound 0.4 µM, partner dose 0.4 µM)",99.5
10,"NC(=O)c1ccc(N(C(N)=O)c2c(F)cccc2F)nc1-c1ccc(F)cc1F + O=C(Nc1cccc(Cl)c1)Nc1ncc(CCNc2ncnc3ccsc23)s1 [SNS314] (first compound 0.4 µM, partner dose 0.0008 µM)",93.4
11,"CC(C)(C)c1cnc(CSc2cnc(NC(=O)C3CCNCC3)s2)o1 + NC(=O)Nc1cc(-c2cccc(F)c2)sc1C(=O)N[C@H]1CCCNC1 [AZD7762] (first compound 0.01 µM, partner dose 0.02 µM)",138
12,"CN(NC(=O)CC(=O)NN(C)C(=S)c1ccccc1)C(=S)c1ccccc1 + COc1cc2c(Oc3ccc4[nH]c(C)cc4c3F)ncnc2cc1OCCCN1CCCC1 [cediranib] (first compound 0.006 µM, partner dose 0.4 µM)",66.2
13,"CCCCCCCCc1ccc(CCC(N)(CO)CO)cc1 [fingolimod] + C[C@@H]1CCN(C(=O)CC#N)C[C@@H]1N(C)c1ncnc2[nH]ccc12 [CP690550] (first compound 2 µM, partner dose 1 µM)",106
14,"CCCCCCCCc1ccc(CCC(N)(CO)CO)cc1 [fingolimod] + COc1cc2c(Oc3ccc4[nH]c(C)cc4c3F)ncnc2cc1OCCCN1CCCC1 [cediranib] (first compound 2 µM, partner dose 0.4 µM)",88.2
15,"CC(C)(C)c1cnc(CSc2cnc(NC(=O)C3CCNCC3)s2)o1 + NCC(=O)Nc1ccc(-n2nc(C(F)(F)F)cc2-c2ccc3c(ccc4ccccc43)c2)cc1 [OSU03012] (first compound 0.01 µM, partner dose 1 µM)",96.6
16,"CCCCCCCCc1ccc(CCC(N)(CO)CO)cc1 [fingolimod] + NCC(=O)Nc1ccc(-n2nc(C(F)(F)F)cc2-c2ccc3c(ccc4ccccc43)c2)cc1 [OSU03012] (first compound 2 µM, partner dose 1 µM)",100
